Laboratory results taken from PubChem BioAssay AID1240 (Sanford-Burnham Center for Chemical Genomics, 2008).
Screen size: about 50,000 compounds; about 800 (1.6%) showed an effect of 50% or more. This is one part of the list.

Target: Bcl-2-like protein 10 (Homo sapiens) (UniProt Q9HD36)
Experiment: Phenotype converters, Bcl-B/TR3 peptide binding displacement, primary biochemical FP (AID 1240);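 further: 0% = Bcl-B with tracer peptide and DMSO and 100% = tracer peptide lacking Bcl-B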
Conditions: GST-Bcl-B / FITC-TR3 peptide fluorescence polarization; stronger effect = higher value; compound at 3.75 mg/L

UniProt Q9HD36, sequence (Q9HD36 whole entry, looked up): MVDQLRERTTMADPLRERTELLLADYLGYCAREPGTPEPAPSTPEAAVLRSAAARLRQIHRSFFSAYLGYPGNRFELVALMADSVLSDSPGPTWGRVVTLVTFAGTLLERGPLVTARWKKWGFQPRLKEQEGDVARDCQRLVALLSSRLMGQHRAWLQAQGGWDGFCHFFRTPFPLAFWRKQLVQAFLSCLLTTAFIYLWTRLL

Row | Structure (SMILES) | displacement [%]
1 | Clc1ccc(Cc2noc(-c3cccs3)n2)cc1 | -15.6
2 | CN(C(=O)C12CC3CC(CC(C3)C1)C2)C1CCS(=O)(=O)C1 (configuration not stated) | -9.7
3 | COCCNC(=O)c1ccc([N+](=O)[O-])cc1Cl | 1.6
4 | C#CCOc1ccc(C=C2C(=O)NC(=S)NC2=O)cc1Br | -17
5 | O=C(NCc1ccc(Cl)cc1)C1CCCN1S(=O)(=O)c1ccc(Cl)cc1 (configuration not stated) | 0.5
6 | COc1cc2c(c(OC)c1OC)c(=O)oc1cc(O)ccc12 | 5
7 | CC(c1ccccc1)N1C(=O)/C(=C/c2cccc([N+](=O)[O-])c2)SC1=S (configuration not stated) | -9
8 | OC(c1ccccc1)(c1ccccc1)c1ccnn1-c1ccccc1 | 2.6
9 | Cc1occc1C(=O)Nc1ccccc1Cl | 5
10 | CC(=O)c1cccc(NC(=O)/C=C/c2ccccc2Cl)c1 | 13.7
11 | Cc1c(C#N)c(N)c(C(=O)c2ccccc2)n1-c1ccccc1 | 9.8
12 | COc1ccc(CC(=O)Nc2cccc(F)c2)cc1OC | 3.9
13 | CN(C)c1ccc(NC(=O)c2cccnc2)cc1 | 3.5
14 | CCC(=O)Nc1ccccc1C(=O)N1CCN(Cc2ccccc2)CC1 | 1.9
15 | CC1=C(C(=O)OCCc2ccccc2)C(c2ccc(Br)cc2)C2=C(CCCC2=O)N1 (configuration not stated) | -10.6
16 | O=C(Nc1ccc(Cl)cc1)Nc1nnc(C23CC4CC(CC(C4)C2)C3)s1 | 6.7
17 | Cc1cc(C)n(CC(=O)n2nc(C)cc2C)n1 | 2.6
18 | O=C(COc1ccc2ccc(=O)oc2c1)c1ccc(Cl)cc1 | 6.8
19 | CC(=O)Nc1ccc(NC(=O)CN2C(=O)c3ccccc3C2=O)cc1 | -1.5
20 | COc1cccc(NC(=O)CN(c2ccc(C)c(Cl)c2)S(C)(=O)=O)c1 | 3.3
21 | COc1cccc(CN2CCN(C(=O)C(c3ccccc3)c3ccccc3)CC2)c1 | -8.9
22 | CCc1cc(=O)oc2cc(C)cc(OC(C)=O)c12 | 11.4
23 | O=C(c1ccccc1F)N1CCN(CCCc2ccccc2)CC1 | -24.8

Row | Structure (SMILES) | displacement [%]
24 | COc1ccc(C)cc1CCC(=O)O | 7.4
25 | O=C(N/N=C/c1ccc(Sc2nnnn2-c2ccccc2)o1)c1ccccc1O | -7.9
26 | O=C(Nc1ccc(NC(=O)c2ccc(Cl)cc2Cl)cc1)c1ccccc1 | 1.2
27 | O=C(COc1ccc2ccccc2c1)N1CCCC1 | -10.1
28 | CCOc1ccc(C(=O)Nc2cccc(OC)c2)cc1Br | 5.7
29 | COc1cc(C2Nc3ccc(C(=O)c4ccccc4)cc3NC3=C2C(=O)CCC3)cc(OC)c1OC (configuration not stated) | -10.6
30 | COC(=O)CNC(c1ccccc1)c1cc(Br)ccc1NS(=O)(=O)c1ccccc1 (configuration not stated) | 0.4
31 | N#C/C(=C/c1ccc(O)cc1)C(=O)Nc1cccc(Br)c1 | -32.7
32 | Cc1ccc(SCCOc2ccc(/C=C3/SC(=S)N(C)C3=O)cc2)cc1 | 16.5
33 | CC(C)(C)c1ccc(OCC(=O)NC(=S)Nc2ccc(NC(=O)c3ccco3)cc2)cc1 | -6.4
34 | O=C(c1cc2ccccc2oc1=O)N1CCN(c2ccccc2)CC1 | 4.4
35 | CSc1nc2sc3c(c2c(=O)[nH]1)CCCC3 | 6.2
36 | C/C(=C\C(=O)c1ccc(Cl)cc1)Nc1ccc(Br)c(C)c1 | 4.4
37 | COc1ccc(OCC(=O)NCCNC(=O)COc2ccc(OC)cc2)cc1 | 4.5
38 | COc1cc(NC(=O)c2cc(Cl)ccc2OC)c(OC)cc1Cl | -1.9
39 | Cc1occc1C(=O)Nc1cccc(O)c1 | 2.5
40 | CCOc1cc(OCC)cc(C(=O)Nc2cc3nn(-c4ccc(OC)cc4)nc3cc2C)c1 | 8.8
41 | COc1cc(OC)c(OC)cc1CN1CCN(C2CCCC2)CC1 | 5
42 | O=c1ccc([N+](=O)[O-])ccc1Nc1ccccn1 | 58.1
43 | O=C(/C=C/c1ccccc1OC(=O)c1cccnc1)c1ccccc1 | -10.4
44 | CCOc1ccccc1NS(=O)(=O)c1ccc(OC)c(OC)c1 | -10.6
45 | O=C(NC(=S)N1CCCc2ccccc21)c1ccc([N+](=O)[O-])cc1 | 19.6
46 | O=S(=O)(Nc1ccc(O)cc1)c1cc(Cl)ccc1Cl | -0.2

Row | Structure (SMILES) | displacement [%]
47 | CC(=O)C1=C(O)C(=O)N(CCN2CCNCC2)C1c1ccc(Br)cc1 (configuration not stated) | 3
48 | CCCc1ccc(OCC(=O)Nc2ccc(N3CCOCC3)cc2)cc1 | 4.4
49 | O=C(CC1(C(F)(F)F)NN=C(c2ccccc2)S1)c1ccccc1 (configuration not stated) | -15.6
50 | CCOC(=O)C1=C(C)NC2=C(C(=O)CCC2)C1c1cccc(Cl)c1 (configuration not stated) | 1.2
51 | CCCCN(C)Cc1c(C)[nH]c2c(ccc3ccccc32)c1=O | 9.7
52 | COc1cc(NC(=O)COc2ccc(Br)cc2)ccc1NC(=O)c1ccco1 | -10.4
53 | O=C(COc1ccc2ccccc2c1)Nc1ccc(Br)c(Cl)c1 | -0.5
54 | COc1ccc(NS(=O)(=O)c2ccc(NC(=S)NC(=O)c3sc4cc(F)ccc4c3Cl)cc2)nn1 | 9.5
55 | Cc1nn(-c2ccc(I)cc2)c(C)c1-c1cccc([N+](=O)[O-])c1 | 14.2
56 | OC(Cc1ccc2ccccc2n1)C(Cl)(Cl)Cl (configuration not stated) | -5.5
57 | O=[N+]([O-])c1ccc2c(c1)S(=O)(=O)N=C2N1CCCCC1 | -7.3
58 | O=C(/C=C/c1ccccc1)Nc1ccc(S(=O)(=O)N2CCCC2)cc1 | -6.4
59 | COc1cc(NC(=O)c2cc3n(n2)C(C(F)(F)F)CC(c2ccc(Cl)cc2)N3)cc(OC)c1OC (configuration not stated) | 3.9
60 | O=C1NC(=O)N(c2ccc(Br)cc2)C(=O)/C1=C/c1cccc(O)c1 | 6
61 | COc1ccc(N=C(C)C2=C(O)CSC2=O)cc1 | -2.1
62 | CCC(=O)Nc1cccc(-c2nc3cc(Cl)ccc3o2)c1C | -34.7
63 | O=[N+]([O-])c1ccc(C2CNC(c3ccccc3O)O2)cc1 (configuration not stated) | 0.4
64 | Cc1ccc2c(c1)NC(c1cccs1)C1=C(CC(c3ccccc3)CC1=O)N2 (configuration not stated) | 2.7
65 | COC(=O)c1cc(NC(=O)S(=O)(=O)c2ccc(C)cc2)cc(C(=O)OC)c1 | 2
66 | COc1cc(C(=O)Nc2ccc(Oc3ccc(NC(=O)c4cc(OC)c(OC)c(OC)c4)cc3)cc2)cc(OC)c1OC | -3
67 | O=S1(=O)C=CC(Nc2cccc(C(F)(F)F)c2)C1 (configuration not stated) | 14
68 | CCOC(=O)c1ccc(N2NC(=O)/C(=C/c3ccc(O)c(OCC)c3)C2=O)cc1 | 12.4
69 | COc1cccc(OC)c1C(=O)Nc1ccc(C(=O)Oc2ccccc2)c(O)c1 | -9.1

Row | Structure (SMILES) | displacement [%]
70 | CC(=O)N1CCN(Cc2ccccc2)CC1 | 3.8
71 | Cc1ccc([N+](=O)[O-])cc1-c1[nH]c(-c2cccc(O)c2)nc1-c1ccccc1 | -1.6
72 | Cc1ccc(OCC(=O)Nc2cccc3nsnc23)c(C)c1 | 26.1
73 | O=C(Nc1ccc(N2CCCCC2)c(Cl)c1)c1cccc2ccccc12 | 21.2
74 | COc1ccc(C(=O)Nc2nnc(Cc3ccc(OC)c(OC)c3)s2)cc1 | -0.5
75 | O=C(Nc1cccc2ccccc12)c1cnccn1 | 8.4
76 | O=C(c1ccco1)N(Cc1ccccc1)c1cccc([N+](=O)[O-])c1 | 1.4
77 | CC(C)(C)c1ccc(-c2nnc(NC(=O)Nc3ccccc3)s2)cc1 | 24.1
78 | CCOC(=O)c1c(NC(=O)c2cccc(OC)c2)sc(C(=O)Nc2ccccc2OC)c1C | -4.4
79 | COc1ccc(C(=O)N2CCCc3ccccc32)cc1OC | -3.3
80 | COc1ccc(OC)c(/C=C2\C(=O)N(c3ccc(S(N)(=O)=O)cc3)N=C2C)c1 | 2.4
81 | COc1ccc(S(=O)(=O)N(CC(=O)NCCc2ccccc2)Cc2ccccc2)cc1 | -0.6
82 | CS(=O)(=O)N(Cc1ccc(C(=O)Nc2ccc(F)c(Cl)c2)cc1)c1ccccc1 | 5.2
83 | C=CCn1c(SCC(=O)N2c3ccccc3C(C)(c3ccccc3)CC2(C)C)nnc1-c1ccncc1 (configuration not stated) | 1.9
84 | Cc1cc(C)c(-n2c(O)c(/C=C3\C=Nc4ccccc43)c(=O)[nH]c2=O)c(C)c1 | -4.1
85 | Cc1ccc(N2C(=O)CC(NCCc3ccccn3)C2=O)cc1 (configuration not stated) | 0.1
86 | COc1ccc(-c2c(C)n([O-])c3c([n+]2=O)CCC3)cc1 | 3
87 | CCOc1ccc(C(=O)Nc2ccc(I)cc2Cl)cc1[N+](=O)[O-] | -4.5
88 | c1ccc(OCCN2CCN(c3ncnc4c3cnn4-c3ccccc3)CC2)cc1 | -14.9
89 | CC1=NN(c2ccccc2)C(=O)/C1=C/c1ccc(-c2ccc(C(=O)O)cc2)o1 | 15.9
90 | Cc1ccc2c(Cl)c(C(=O)NCC3CCCO3)sc2c1 (configuration not stated) | -20.5
91 | COc1ccc(S(=O)(=O)Nc2cccnc2)cc1 | 13
92 | COc1ccc(-n2cnc3c(sc4nccc(N(C)C)c43)c2=O)cc1 | -25.5

Row | Structure (SMILES) | displacement [%]
93 | Cc1ccc2nc(-c3sc(=S)n(-c4ccccc4)c3N)[nH]c2c1 | -38.4
94 | O=[N+]([O-])c1cccc(C2N(c3ccccc3)CCN2c2ccccc2)c1 | -4.1
95 | O=C(NNc1nc(-c2ccccc2)c2cc(Cl)ccc2n1)c1ccc(Cl)cc1Cl | 13.6
96 | Fc1ccccc1OCCCCCCN1CCCC1 | 15.9
97 | COC(=O)c1sccc1NC(=O)c1ccccc1C | -13.5
98 | O=[N+]([O-])c1ccc(NCCCNS(=O)(=O)c2ccccc2)cc1 | 9.8
99 | Cc1ccc(N2C(=O)CC(N3CCOCC3)C2=O)cc1 (configuration not stated) | 6
100 | O=C1C(=O)N(CN2CCCCC2)C2C=CC=CC12 (configuration not stated) | 17.2
101 | O=C1C/C(=C/NCc2ccccc2)C(=O)N1 | 9.6
102 | O=C1CNC(=O)c2c(ncn2Cc2ccccc2)N1 | -13.2
103 | COc1ccc(C2(CCN)CCOC(C)(C)C2)cc1 (configuration not stated) | -7.2
104 | C=C(C)CSc1nnc2nc(C)cc(C)n12 | 2.9
105 | CCOC(=O)c1ccccc1NC(=O)C(C)Oc1ccccc1 (configuration not stated) | 13.1
106 | O=[N+]([O-])c1cc2c(c([N+](=O)[O-])c1)Nc1ccccc1N=C2c1ccc(Br)cc1 | -7.1
107 | CCN1C(=O)/C(=C/c2cccc(OC(F)(F)C(F)F)c2)SC1=S | 14.1
108 | N#Cc1ccccc1NC(=O)COc1ccccc1 | 14.4
109 | C=CCn1c2ccccc2n2cc(-c3ccc(C)cc3)nc12 | -17
110 | Cc1cccc(C(=O)NNC(=O)c2ccco2)c1O | -6.6
111 | COc1ccc(OC)c(N=CC2=C(O)CC(C)(C)CC2=O)c1 | 1.8
112 | Cc1ccc2oc(-c3ccc(NC(=O)c4ccc(Br)o4)c(C)c3)nc2c1 | -5.7
